The supplement of paper PMC10126150
Sequences with one replicate were seen in a single cluster, so their values are uncertain.

Tested on: ATP
Experiment: switch fluorescence ratio, 500 uM ATP over buffer (Cy3 cluster intensity, sum of 5 cycles each) (fold (ratio)); higher = stronger signal-on switching upon ATP binding; sequences stand for … in TCGTCGGCAGCGTCAGATGTGTATAAGAGACAGTTTTTTTTTTTTTTTTTTTTTTTTT…TC
Conditions: aptamer strand: ATP DNA aptamer (quencher-CACCTGGGGGAGTATTGCGGAGGAAGG + anchor), 100 nM annealed; ATP concentration: 500 uM; one replicate
How it was run: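 Exposure to 500 uM ATP lasted 15 min at 22 °C before imaging, and a selection-buffer image was taken beforehand, for Cy3-labelled switching-strand clusters on a modified Illumina MiSeq flow-cell annealed to 100 nM quencher-labelled ATP aptamer. Five buffer/ATP cycles were run with NaOH stripping and re-annealing between them. The fluorescence ratio per cluster is summed target-cycle over summed buffer-cycle Cy3 intensity, averaged per switch-domain sequence. Clusters outside 100-1000 RFU were excluded.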

Row | Sequence | switch fluorescence ratio
1 | CATACCTTAT | 1.03
2 | CATACGTCCA | 1.14
3 | CATACTCCT | 1.37
4 | CATAGACCGC | 1.07
5 | CATAGAGCT | 0.972
6 | CATAGAGGCG | 0.985
7 | CATAGCGTAC | 4.64
8 | CATAGCTAGT | 1.03
9 | CATAGGGTCG | 0.968
10 | CATAGTAAGT | 1.01
11 | CATAGTCATG | 0.935
12 | CATATATTAA | 0.996
13 | CATATCGGCT | 0.978
14 | CATATGATAC | 1.04
15 | CATATGCG | 1.07
16 | CATATGTTGT | 0.981
17 | CATATTATCG | 1.03
18 | CATCAACGTG | 1.03
19 | CATCACAGTG | 1.09
20 | CATCAGAATG | 0.945
21 | CATCATGTAT | 0.996
22 | CATCCAGTCT | 1.29
23 | CATCCATACG | 1.34
24 | CATCCCCTCT | 1.05
25 | CATCCTTAGT | 1.02
26 | CATCGAGCTC | 1

Row | Sequence | switch fluorescence ratio
27 | CATCGGATCG | 0.967
28 | CATCGGGTCC | 1.02
29 | CATCGGTGTA | 0.985
30 | CATCTAATGT | 1.07
31 | CATCTAATTG | 0.995
32 | CATCTCAGTC | 1.02
33 | CATCTCCAGC | 1.13
34 | CATCTCGGGG | 0.979
35 | CATCTCTGAC | 1.11
36 | CATCTCTGGG | 1.01
37 | CATCTCTTTC | 1.15
38 | CATCTGAAGG | 0.96
39 | CATCTGAATT | 1.03
40 | CATCTGGGAA | 1.09
41 | CATCTGTACT | 1.07
42 | CATCTGTAGT | 1.08
43 | CATCTTAAT | 1.01
44 | CATCTTATGT | 0.964
45 | CATCTTGGG | 1.02
46 | CATGAAAGCG | 1.02
47 | CATGACAAGG | 1.03
48 | CATGACGAGA | 0.998
49 | CATGACTGTT | 1.03
50 | CATGAGGGGT | 0.989
51 | CATGATGCGG | 0.988
52 | CATGCAACGG | 1.07

Row | Sequence | switch fluorescence ratio
53 | CATGCAGGGC | 1.11
54 | CATGCCCGTT | 0.986
55 | CATGCCGCCT | 0.989
56 | CATGCCTCGT | 0.99
57 | CATGCGTCAA | 3.75
58 | CATGCTTGTG | 1.05
59 | CATGGACCAT | 1.02
60 | CATGGCAGAT | 0.972
61 | CATGGCAGGG | 1.05
62 | CATGGCCGAT | 0.99
63 | CATGGCTACT | 1.04
64 | CATGGGAAAA | 0.979
65 | CATGGGAGTA | 0.996
66 | CATGGGCTTA | 0.997
67 | CATGGGGCAC | 1.01
68 | CATGGTAGTG | 1.01
69 | CATGGTGCCG | 1.04
70 | CATGGTGGCT | 1.03
71 | CATGGTTGGA | 0.944
72 | CATGTAAACC | 1.01
73 | CATGTAATCC | 1.04
74 | CATGTAGGTT | 1.08
75 | CATGTCAGCT | 0.988
76 | CATGTCTGAG | 1.02
77 | CATGTGAGTC | 0.986
78 | CATGTGGC | 0.962

Row | Sequence | switch fluorescence ratio
79 | CATGTGGTAT | 0.97
80 | CATGTTATTG | 1.02
81 | CATGTTCAG | 1.04
82 | CATGTTCCTC | 1.05
83 | CATGTTGTAA | 1.03
84 | CATGTTTCG | 1.07
85 | CATTAAGGAA | 0.978
86 | CATTACCGTG | 0.974
87 | CATTACCTGA | 1.03
88 | CATTACGATC | 1.03
89 | CATTAGCGA | 1.34
90 | CATTAGGAAC | 1.03
91 | CATTAGGGTG | 1.08
92 | CATTATGATC | 0.982
93 | CATTCACCGA | 1.04
94 | CATTCAGAAT | 1.01
95 | CATTCATGCG | 0.999
96 | CATTCCAGGC | 1.08
97 | CATTCCTGGG | 1.01
98 | CATTCGAAAA | 0.992
99 | CATTCTACTT | 1.05
100 | CATTCTCAGG | 1.04
101 | CATTCTCGAA | 0.955
